# Test results taken from PubChem BioAssay AID248 (DTP/NCI, 2004).
# Inconclusive results and toxic doses are left out. A number of entries come with more than one value. Only these are listed. The source may hold further records. Results that share an entry differ for a reason that is not stated; some may be repeats, others may stem from another dose, organism or construct than stated.
# System: L1210 leukemia ip in BDF1 mice, survival T/C
# Experiment: NCI In Vivo Anticancer Drug Screen. Data for tumor model L1210 Leukemia (intraperitoneal) in B6D2F1 (BDF1) mice
# Details: endpoint: mean survival time, schedule: Q01DX001 (ip), vehicle: saline, higher = longer survival
smiles,measurement,setting,value
O=C1N[C@@H]([C@H]2CC[C@H](Cl)CN2)C(=O)N[C@H]1[C@H]1CC[C@H](Cl)CN1,T/C,dose: 2.0 mg/kg/injection,100 % of control and 171 % of control
same,T/C,dose: 4.0 mg/kg/injection,101 % of control and 163 % of control
same,T/C,dose: 8.0 mg/kg/injection,107 % of control and 442 % of control
